Measured values: PubChem BioAssay AID1159614 (National Center for Advancing Translational Sciences (NCATS), 2016)
The whole screen tested about 45,000 compounds, of which about 65 (0.1%) were called active. Calls come from the whole dose curve; as a rule, active = well fitted activation curve with a large enough effect; inconclusive = small, poorly fitted or top-dose-only effect; inactive = no such curve, though single readings can be large or run the other way. The list shows a part of the results.

These molecules were tested against Galactocerebrosidase (Homo sapiens) (UniProt P54803) (assay: A Novel Cell-Based Assay to Identify Small Molecules for B -Galactocerebrosidase). Details: 145M-Twi-hGALC-G270D cells (Twitcher mouse brain line with human GALC G270D), HMU-beta-Gal fluorescence, 48 h; series mostly up to 57.5 µM; activation: at the top concentration.
Outline: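 Fluorescence readout: HMU-β-gal cleavage by mutant GALC (0.1 mM final, citrate/phosphate pH 5.2 with 1 mg/mL taurocholate), stopped with carbonate/bicarbonate plus Triton X-100. Cells: murine Twitcher 145M-Twi expressing human G270D GALC; qHTS for activators.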
Note: 0% is about no effect; nearly all actives have a fitted effect of over 65% in size.

Chain of UniProt P54803 (P54803 whole entry, looked up): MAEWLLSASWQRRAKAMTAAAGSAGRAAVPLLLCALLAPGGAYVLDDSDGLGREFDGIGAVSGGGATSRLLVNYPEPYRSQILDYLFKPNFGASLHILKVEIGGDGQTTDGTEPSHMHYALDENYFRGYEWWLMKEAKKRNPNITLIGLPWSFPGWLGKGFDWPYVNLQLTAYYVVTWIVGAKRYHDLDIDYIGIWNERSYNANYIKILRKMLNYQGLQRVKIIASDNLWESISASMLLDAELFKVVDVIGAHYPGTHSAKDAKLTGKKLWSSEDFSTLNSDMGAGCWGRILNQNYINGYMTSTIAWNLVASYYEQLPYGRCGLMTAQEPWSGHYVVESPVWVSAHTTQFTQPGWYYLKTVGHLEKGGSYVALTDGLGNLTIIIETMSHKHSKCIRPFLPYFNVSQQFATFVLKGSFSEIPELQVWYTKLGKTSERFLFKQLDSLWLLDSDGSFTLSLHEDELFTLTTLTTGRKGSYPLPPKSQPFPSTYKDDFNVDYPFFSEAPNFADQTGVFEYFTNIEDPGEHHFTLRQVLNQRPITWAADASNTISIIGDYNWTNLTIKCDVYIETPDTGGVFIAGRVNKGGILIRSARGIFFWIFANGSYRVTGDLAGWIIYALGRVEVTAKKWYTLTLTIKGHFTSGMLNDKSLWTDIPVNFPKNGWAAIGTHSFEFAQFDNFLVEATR

activation, inactive:
Cc1ccc(Nc2c3c(nc4nc(-c5cccs5)nn24)CCCC3)cc1F -8.96%, CCOc1ccc2oc(=O)cc(CN3CCN(Cc4ccc(C)cc4)CC3)c2c1 -26.1%, Cc1oc(-c2ccc(Cl)cc2)nc1CS(=O)CC(=O)NCCc1ccccc1 (configuration not stated) -6.4%, CCOC(=O)Cn1nc(C)c(NC(=O)COc2ccccc2)c1C -10.8%, COc1ccccc1CNc1nc(-c2ccco2)nn1S(C)(=O)=O 3.78%, Cc1cccc(Cn2c(=O)n(CCCC(=O)NCc3ccccc3Cl)c(=O)c3ccccc32)c1 5.21%, COc1ccc(S(=O)(=O)NC(C)(C)C)cc1-c1nnc2c3ccccc3c(C)nn12 -9.94%, Cc1ccc(S(=O)(=O)c2nc(-c3cccs3)oc2SCC(=O)Nc2cc(C)cc(C)c2)cc1 -26.8%, COc1ccccc1OCC(=O)N(Cc1cccs1)C1CCS(=O)(=O)C1 (configuration not stated) -10.7%, COc1ccc(N(Cc2cccs2)C(=O)COc2cccc(C)c2C)cc1 -9.74%, CSc1ccc(NC(=O)C2CCN(c3ncccn3)CC2)cc1 -17.2%, CCN1CCN(c2ncc3c(n2)CCN(CC(C)C)C3)CC1 -8.74%, COC(=O)CC1Oc2ccc(F)cc2-n2cc(-c3ccc(C)cc3)nc21 (configuration not stated) 15.5%, COc1cc(NC(=O)CCn2c(=O)oc3ccccc32)cc(OC)c1OC -22.2%, COc1ccc(-n2cc(-c3ccccc3)nc2SCC(=O)Nc2ccccc2C)cc1 -10.5%, CCOC(=O)N1CCc2c(sc(NCc3cccc(F)c3)c2C(=O)Nc2ccc(OC)cc2)C1 -24.1%, Cc1ccc(CNc2nc3ccc(Cl)cc3n3nnnc23)cc1 11%, COc1cc(OC)c(NS(=O)(=O)c2c(C(=O)N3CCCCCC3)c(C)n(C)c2C)cc1Cl -13.6%, Cc1cc(-c2ccc(C)c(S(=O)(=O)Nc3ccccn3)c2)on1 -9.34%, COc1ccc(Br)cc1CNC(=O)c1ccc2nc(C(C)C)oc2c1 -11.3%, CCOc1ccc(-n2ccnc2SCC(=O)Nc2cccc3ccccc23)cc1 -6.24%, Cc1cccc(CC(=O)N2CC(=O)Nc3ccc(C)cc3C2c2ccc(F)cc2)c1 (configuration not stated) -11.8%, CCCN(CCC)C(=O)CSc1c2c(nc3ccc(Cl)cc13)CCCC2 -8.73%, Cc1ccc(NC(=O)CN2C(=O)C(c3ccc(C(C)(C)C)cc3)=NC2(C)C)cc1 -25.2%, CC(=O)[C@]1(O)Cc2c(O)c3c(c(O)c2[C@@H](O[C@H]2C[C@H](N)[C@H](O)[C@H](C)O2)C1)C(=O)c1ccccc1C3=O -11.3%, CN1C(CSCC(F)(F)F)Nc2cc(Cl)c(S(N)(=O)=O)cc2S1(=O)=O (configuration not stated) -10.9%, O=[N+]([O-])c1cc(-c2nc(-c3ccccc3)no2)ccc1NCc1cccnc1 -35.7%
